Assay results from patent publication US5451518A, “Purified human ceramide-activated protein kinase” (Sloan-Kettering Institute for Cancer Research, priority 1992, dated 1995).
Read-outs that look alike come from different tables or passages of the source.

What was measured:
HL-60 cells [1] = details: cited from earlier work
HL-60 cells [2] = details: cited from earlier work; remark: listed apart in the source
[3] = tested on: ceramide-activated protein kinase; details: for effect on EGFR peptide phosphorylation (in words): A-431; for effect of cations / chelator on kinase activity toward EGFR peptide: Mg^2+ 25 mM, Mn^2+ 1-10 mM, Zn^2+ 1-10 mM, Ca^2+ 0.001-10 mM, EGTA 1 mM alone
[4] = tested on: ceramide-activated protein kinase; details: nuclei-free supernates; read-out: Michaelis constant (Km) for ATP; cited from earlier work
[5] = tested on: ceramide-activated protein kinase; details: read-out: Michaelis constant (Km) for ATP; EL-4 microsomal membrane, baseline
Description: Homogenates were centrifuged at 500×g for 5 minutes to remove nuclei and at 200,000×g for 30 minutes to prepare microsomal membranes. Membranes were resuspended into homogenizing buffer (2.2 μg membrane protein μl^-1). For assay of kinase activity, the reaction mixture contained 20 μl of microsomal membrane, 40 μl EGFR peptide (4 mg ml^-1 in 25 mM Hepes, pH 7.4) and 100 μl buffer (50 mM HEPES, pH 7.4, 20 mM MgCl2) (40). Phosphorylation was initiated at 22° C. by addition of 40 μl [γ-^32 P] ATP (100 μM final concentration) and terminated at the indicated times by addition of 40 μl of 0.5M ATP in 90% formic acid. Phosphorylated peptide was eluted from a C18 Sep pak cartridge (Millipore), lyophilized, and resolved by C18 reverse phase HPLC using a linear gradient of acetonitrile. […] All assays were performed under conditions determined as linear for time and enzyme concentration. Enzyme activity was determined from the percent conversion of substrate to product and the specific radioactivity of [γ-^32 P] ATP. […] Values (mean ± range) represent duplicate determinations from two experiments.
Activity was measured by the transfer of ^32 P from the γ-position of ATP to EGFR peptide (AA 663-681 of the EGFR). The effect of IL-1β on kinase activity was determined using microsomal membranes derived from cells stimulated with IL-1β.

[6] = tested on: ceramide-activated protein kinase; details: C8-cer 0.3 μM added to medium
EL-4 cells = assay: Ceramide levels in intact EL-4 cells; type: cell-based, murine; details: maximally effective concentrations (n=5), SMase 1×10^-3 U ml^-1
Description: Time course (FIG. 12A) and dose response (FIG. 12B). Cells were grown to growth arrest (1-1.5×10^6 cells ml^-1) in DME/Ham's F12 medium (1:1, v/v) containing 10% horse serum and for 48 hours [^3 H]choline (1 μCi ml^-1). On the day of an experiment, cells were resuspended back into the same medium at 10×10^6 cells ml^-1 and stimulated with 40 ng ml^-1 IL-1β for the indicated times (FIG. 12A) or for 30 minutes with increasing concentrations of IL-1β (FIG. 12B). Human IL-1β may be obtained using methods well knownto those skilled in the art. Reactions were terminated with CHCl3 :CH3 OH:HCl (100:100:1) containing 10 mM EDTA (82). Lipids in the organic phase extract were dried under N2 and subjected to mild alkaline hydrolysis (0.1M methanolic KOH for 1 hour at 37° C.) to remove glycerophospholipids. Spingomyelin was resolved by thin-layer chromatography (TLC) using CHCl3 :CH3 OH:CH3 COOH:H2 O (60:30:8:5) as solvent, identified by iodine vapor staining, and quantified by liquid scintillation spectrometry. As previously reported, the use of [^3 H]choline as a measure of sphingomyelin content was validated by simultaneous phospholipid phosphorus measurements (62). Each value represents the mean ± SEM of triplicate determinations from four experiments in (FIG. 12A), and one representative of four similar studies performed in triplicate in (FIG. 12B).
Cells were stimulated as in FIGS. 12A and 12B with IL-1β (40 ng ml^-1) and ceramide contained within the organic phase extract quantified enzymatically using the E. coli diacylglycerol kinase reaction (57). Lipids were resolved by TLC using CHCl3 :CH3 OH:CH3 COOH (65/15/5) as solvent, autoradiographed and quantified by liquid scintillation spectrometry. Each value represents the mean ± SEM of triplicate determinations from 10 experiments.

EL4 cells = details: for IL-2 secretion in combination with TPA (in words): 24 h

C=C1/C(=C\C=C2/CCC[C@]3(C)[C@@H]([C@H](C)CCCC(C)(C)O)CC[C@@H]23)C[C@@H](O)C[C@@H]1O [1,25-dihydroxyvitamin D3, reference compound]
sphingomyelin degradation to ceramide / ceramide level (in words) (HL-60 cells [1]; HL-60): stimulate sphingomyelin degradation to ceramide
monocytic differentiation (HL-60 cells [2]): induce monocytic differentiation

Nc1ncnc2c1ncn2[C@@H]1O[C@H](COP(=O)(O)OP(=O)(O)OP(=O)(O)O)[C@@H](O)[C@H]1O [ATP, adenosine triphosphate]
Km ([3]; read-out: Apparent Km for ATP, A-431, 5 minutes): 15 µM
Km [4]: 15 µM
Km [5]: 70 µM

CCCCCCCCCCCCC/C=C/[C@@H](O)[C@H](CO)NC(=O)CCCCCCC [C8 -cer, N-octanoylsphingosine, reference compound]
effect on EGFR peptide phosphorylation (in words) [3]: similarly effective
increase in kinase activity [6]: 1.2 -fold of control

O=C(O)CN(CCOCCOCCN(CC(=O)O)CC(=O)O)CC(=O)O [EGTA]
effect of cations / chelator on kinase activity toward EGFR peptide [3]: peptide phosphorylation did not occur

[Mg+2] [Mg^2+]
kinase activity with Mg^2+ ([3]; 0.1 mM Mg^2+, 2 minutes): 4 pmol.min^-1 (mg of protein^-1)
effect of cations / chelator on kinase activity toward EGFR peptide [3]: did not further increase activity
concentration for maximal activity (Mg^2+) ([3]; Mg^2+, 2 minutes): 10 mM
EC50 ([3]; read-out: ED50 (Mg^2+), Mg^2+-dependence of peptide phosphorylation, 2 minutes): ~3.5 mM

CCCCCCCCCCCCC/C=C/[C@@H](O)[C@H](CO)NC(C)=O [N-acetylsphingosine, reference compound]
monocytic differentiation (HL-60 cells [2]): could replace these agents in induction of monocytic differentiation

CCCCCCCCCCCCCC(=O)O[C@@H]1[C@@H](C)[C@@]2(O)[C@@H](C=C(CO)C[C@]3(O)C(=O)C(C)=C[C@@H]23)[C@@H]2C(C)(C)[C@]12OC(C)=O [TPA, 12-0-tetradecanoylphorbol-13-acetate, reference compound]
ceramide response (in words) (EL-4 cells): failed to elicit a ceramide response

CNC[C@H](O)c1ccc(O)c(O)c1 [epinephrine, reference compound]
ceramide response (in words) (EL-4 cells): failed to elicit a ceramide response

CCCCCCCCCCCCCCCC(=O)O [palmitic acid]
effect on EGFR peptide phosphorylation (in words) [3]: failed to increase EGFR peptide phosphorylation

concanavalin A [reference compound]
ceramide response (in words) (EL-4 cells): failed to elicit a ceramide response

sphingomyelinase
elevation in ceramide levels in HL-60 cells (HL-60 cells [1]; sphingomyelinase 1×10^-3 U ml^-1): two-fold elevation in ceramide levels
IL-2 secretion in combination with TPA (in words) (EL4 cells): replaced IL-1β to stimulate IL-2 secretion
IL-2 secretion in combination with TPA (in words) (EL4 cells; listed as Sphingomyelinase): induced secretion
concentrations of TPA at which sphingomyelinase induced IL-2 secretion (EL4 cells; sphingomyelinase 1×10^-3 U ml^-1, n=2): 0.5 to 20 ng/mL
